Reference: the supplement of paper PMC4967469
The IC50 comes from the fitted curve, where viability falls to half of the control; a limit (>, <) means that the fit lies beyond the doses tested. The AUC spans the tested range (256-fold, ending at the top dose) of the same fit; values near 1 show little effect. Where the top dose is marked as inferred, it was calculated from the reported fits.

compound: O=C1NC(=O)/C(=C\c2ccc3nccnc3c2)S1 [AS605240]; assay: Viability of human cancer cell lines after 72 h of drug (GDSC screen); settings: top dose inferred
Procedure: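 Human cancer cell lines in 384-well plates, medium with 10% serum, drug for 72 h over a 256-fold dose range (nine 2-fold or five 4-fold steps up to the top dose). Adherent lines were fixed and stained with the nucleic acid dye Syto60, suspension lines read with resazurin; signal relative to control wells, capped at 0 and 100%. One two-parameter sigmoid per drug and line, fitted in a mixed model over all curves with the slope shared within a line.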

Question: “LU-139 (small cell lung carcinoma, suspension, top dose 20 µM)” was tested. Which AUC did it give?
Answer: Its AUC is 0.756.

Question: What about the IC50 of the same cell line?
Answer: The IC50 was 8.65 µM.

Question: How did the AUC turn out when “TC-71 (Ewing sarcoma, adherent, top dose 20 µM)” was run?
Answer: The AUC was 0.85.

Question: And the IC50?
Answer: The IC50 was 11.4 µM.

Question: With “LB2518-MEL (melanoma, adherent, top dose 20 µM)” as the cell line, how does the AUC read?
Answer: The AUC was 0.373.

Question: And the IC50?
Answer: The IC50 was 0.546 µM.

Question: With “NCI-H1666 (lung adenocarcinoma, semi-adherent, top dose 20 µM)” as the cell line, how does the AUC read?
Answer: Its AUC is 0.935.

Question: What about the IC50 of the same cell line?
Answer: Its IC50 is > 20 µM.

Question: With “MC116 (B-cell lymphoma, suspension, top dose 20 µM)” as the cell line, how does the AUC read?
Answer: The AUC was 0.894.

Question: And the IC50?
Answer: The IC50 was 11.4 µM.

Question: Which results are given for “MS-1 (small cell lung carcinoma, suspension, top dose 20 µM)”?
Answer: AUC: 0.903; IC50: > 20 µM

Question: Which AUC does the source give for “RO82-W-1 (thyroid, adherent, top dose 20 µM)” here?
Answer: Its AUC is 0.982.

Question: What about the IC50 of the same cell line?
Answer: The IC50 was > 20 µM.

Question: With “CESS (acute myeloid leukaemia, suspension, top dose 20 µM)” as the cell line, how does the AUC read?
Answer: The AUC was 0.787.

Question: What about the IC50 of the same cell line?
Answer: Its IC50 is 7.4 µM.

Question: With OV-7 (ovary, adherent, top dose 20 µM) as the cell line, how does the AUC read?
Answer: The AUC was 0.76.

Question: What about the IC50 of the same cell line?
Answer: The IC50 was 10.8 µM.

Question: Which results are given for “LB647-SCLC (small cell lung carcinoma, semi-adherent, top dose 20 µM)”?
Answer: AUC: 0.916; IC50: > 20 µM

Question: With “D-392MG (glioma, adherent, top dose 20 µM)” as the cell line, how does the AUC read?
Answer: Its AUC is 0.879.

Question: What about the IC50 of the same cell line?
Answer: The IC50 was > 20 µM.

Question: How did the AUC turn out when “SK-MEL-5 (melanoma, adherent, top dose 20 µM)” was run?
Answer: The AUC was 0.862.

Question: What about the IC50 of the same cell line?
Answer: The IC50 was > 20 µM.

Question: With “LB2241-RCC (kidney, adherent, top dose 20 µM)” as the cell line, how does the AUC read?
Answer: The AUC was 0.984.

Question: What about the IC50 of the same cell line?
Answer: The IC50 was > 20 µM.

Question: Which results are given for GAMG (glioma, adherent, top dose 20 µM)?
Answer: AUC: 0.884; IC50: > 20 µM

Question: What does the source list for “Caov-3 (ovary, adherent, top dose 20 µM)”?
Answer: AUC: 0.873; IC50: 15.3 µM

Question: “CCF-STTG1 (glioma, adherent, top dose 20 µM)” was tested. Which AUC did it give?
Answer: The AUC was 0.988.

Question: And the IC50?
Answer: The IC50 was > 20 µM.

Question: Which AUC does the source give for “CGTH-W-1 (thyroid, adherent, top dose 20 µM)” here?
Answer: The AUC was 0.961.

Question: And the IC50?
Answer: The IC50 was > 20 µM.

Question: How did the AUC turn out when “NCI-H2171 (small cell lung carcinoma, suspension, top dose 20 µM)” was run?
Answer: Its AUC is 0.917.

Question: What about the IC50 of the same cell line?
Answer: The IC50 was > 20 µM.

Question: “NB12 (neuroblastoma, adherent, top dose 20 µM)” was tested. Which AUC did it give?
Answer: The AUC was 0.912.

Question: And the IC50?
Answer: The IC50 was > 20 µM.

Question: With “SK-N-SH (neuroblastoma, adherent, top dose 20 µM)” as the cell line, how does the AUC read?
Answer: The AUC was 0.823.

Question: What about the IC50 of the same cell line?
Answer: Its IC50 is 11.6 µM.

Question: Which AUC does the source give for DJM-1 (skin, adherent, top dose 20 µM) here?
Answer: Its AUC is 0.836.

Question: And the IC50?
Answer: The IC50 was 13.1 µM.

Question: Which results are given for “PANC-10-05 (pancreas, adherent, top dose 20 µM)”?
Answer: AUC: 0.747; IC50: 8.02 µM

Question: What does the source list for “HCC1937 (breast, adherent, top dose 20 µM)”?
Answer: AUC: 0.894; IC50: > 20 µM

Question: Which results are given for Hey (ovary, adherent, top dose 20 µM)?
Answer: AUC: 0.958; IC50: > 20 µM

Question: For “OC-314 (ovary, adherent, top dose 20 µM)”, which AUC is on record?
Answer: The AUC was 0.937.

Question: And the IC50?
Answer: The IC50 was > 20 µM.

Question: How did the AUC turn out when “LNCaP-Clone-FGC (prostate, adherent, top dose 20 µM)” was run?
Answer: Its AUC is 0.962.

Question: And the IC50?
Answer: Its IC50 is > 20 µM.

Question: For “TCCSUP (bladder, adherent, top dose 20 µM)”, which AUC is on record?
Answer: The AUC was 0.938.

Question: What about the IC50 of the same cell line?
Answer: The IC50 was > 20 µM.

Question: “KASUMI-1 (acute myeloid leukaemia, suspension, top dose 20 µM)” was tested. Which AUC did it give?
Answer: Its AUC is 0.407.

Question: And the IC50?
Answer: Its IC50 is 0.696 µM.

Question: What does the source list for “RD (rhabdomyosarcoma, adherent, top dose 20 µM)”?
Answer: AUC: 0.964; IC50: > 20 µM

Question: What does the source list for HuH-7 (liver, adherent, top dose 20 µM)?
Answer: AUC: 0.893; IC50: > 20 µM

Question: How did the AUC turn out when “KYSE-150 (oesophagus, adherent, top dose 20 µM)” was run?
Answer: Its AUC is 0.977.

Question: And the IC50?
Answer: The IC50 was > 20 µM.

Question: How did the AUC turn out when “KYSE-410 (oesophagus, adherent, top dose 20 µM)” was run?
Answer: Its AUC is 0.93.

Question: And the IC50?
Answer: The IC50 was > 20 µM.

Question: “TYK-nu (ovary, adherent, top dose 20 µM)” was tested. Which AUC did it give?
Answer: The AUC was 0.902.

Question: And the IC50?
Answer: The IC50 was > 20 µM.

Question: “PF-382 (T-cell lymphoblastic leukaemia, suspension, top dose 20 µM)” was tested. Which AUC did it give?
Answer: Its AUC is 0.605.

Question: And the IC50?
Answer: Its IC50 is 2.34 µM.

Question: RKN (ovary, adherent, top dose 20 µM) was tested. Which AUC did it give?
Answer: The AUC was 0.386.

Question: What about the IC50 of the same cell line?
Answer: Its IC50 is 0.597 µM.

Question: With “SU-DHL-6 (B-cell lymphoma, suspension, top dose 20 µM)” as the cell line, how does the AUC read?
Answer: The AUC was 0.823.

Question: And the IC50?
Answer: The IC50 was 8.02 µM.

Question: What does the source list for “MZ2-MEL (melanoma, adherent, top dose 20 µM)”?
Answer: AUC: 0.197; IC50: 0.13 µM

Question: “OCUB-M (breast, adherent, top dose 20 µM)” was tested. Which AUC did it give?
Answer: Its AUC is 0.862.

Question: And the IC50?
Answer: The IC50 was 13.4 µM.

Question: With “RCC-FG2 (kidney, adherent, top dose 20 µM)” as the cell line, how does the AUC read?
Answer: Its AUC is 0.892.

Question: And the IC50?
Answer: The IC50 was > 20 µM.

Question: What does the source list for “EM-2 (chronic myeloid leukaemia, suspension, top dose 20 µM)”?
Answer: AUC: 0.707; IC50: 5.21 µM

Question: For “JVM-3 (lymphoid neoplasm, suspension, top dose 20 µM)”, which AUC is on record?
Answer: The AUC was 0.857.

Question: What about the IC50 of the same cell line?
Answer: The IC50 was 16.6 µM.
